These results are taken from publication PMC4336329 (PLoS ONE, 2015).

Each structure is given as a SMILES string. Screen size: about 310,000 compounds; about 14,000 (4.5%) showed an effect of 50% or more. The effect is printed as a negative number. The list shows a part of the results.
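Also: peak tail current of the secondary pulse compared with the same well before compound.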

The target in this assay is human ether-à-go-go-related gene (hERG) potassium channel (human, UniProt Q12809). The experiment in a line: primary screen, population patch clamp on CHO cells stably expressing hERG.
human ether-à-go-go-related gene (hERG) potassium channel, sequence (Q12809 whole entry, looked up): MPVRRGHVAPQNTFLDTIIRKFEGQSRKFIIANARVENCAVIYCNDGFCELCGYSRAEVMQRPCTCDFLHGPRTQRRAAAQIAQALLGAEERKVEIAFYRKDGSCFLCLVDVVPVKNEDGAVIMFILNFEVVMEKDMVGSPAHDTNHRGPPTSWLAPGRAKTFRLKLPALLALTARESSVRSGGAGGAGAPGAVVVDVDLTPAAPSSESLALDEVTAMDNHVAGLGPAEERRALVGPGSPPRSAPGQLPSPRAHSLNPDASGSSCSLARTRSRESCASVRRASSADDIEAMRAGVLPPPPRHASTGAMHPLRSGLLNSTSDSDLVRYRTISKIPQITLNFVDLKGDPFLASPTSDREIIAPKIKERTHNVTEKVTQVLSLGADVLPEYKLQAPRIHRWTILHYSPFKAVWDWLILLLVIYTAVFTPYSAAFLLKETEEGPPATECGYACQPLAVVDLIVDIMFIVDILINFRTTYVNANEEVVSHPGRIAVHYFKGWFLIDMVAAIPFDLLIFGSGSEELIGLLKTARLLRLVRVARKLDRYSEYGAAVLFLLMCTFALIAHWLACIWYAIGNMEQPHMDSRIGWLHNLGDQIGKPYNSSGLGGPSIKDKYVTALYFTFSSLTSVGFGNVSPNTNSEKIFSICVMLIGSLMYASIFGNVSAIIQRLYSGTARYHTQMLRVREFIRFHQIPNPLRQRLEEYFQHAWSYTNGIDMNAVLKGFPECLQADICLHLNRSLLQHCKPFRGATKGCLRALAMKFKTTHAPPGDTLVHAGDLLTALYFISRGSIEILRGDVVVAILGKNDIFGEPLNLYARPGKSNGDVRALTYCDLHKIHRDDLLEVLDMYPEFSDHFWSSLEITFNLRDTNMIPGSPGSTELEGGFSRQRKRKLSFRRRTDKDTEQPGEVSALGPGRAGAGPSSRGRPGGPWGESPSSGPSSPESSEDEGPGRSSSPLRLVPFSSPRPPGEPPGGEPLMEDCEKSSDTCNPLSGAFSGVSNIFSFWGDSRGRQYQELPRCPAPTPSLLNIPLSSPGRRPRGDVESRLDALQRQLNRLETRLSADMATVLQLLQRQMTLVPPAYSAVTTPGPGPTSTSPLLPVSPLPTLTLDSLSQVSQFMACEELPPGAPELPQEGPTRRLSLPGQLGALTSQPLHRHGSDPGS
For the compound `COc1cc(O)c2c(=O)cc(-c3ccccc3)oc2c1`, the “hERG current change (%, negative = inhibition) at 10uM” value is listed as 0.195%. To `COC(C(=O)Nc1c(F)cccc1F)c1ccccc1` (centres unmarked) belongs 12.1%. To `Cc1ccccc1Cn1c(-c2ccc(=O)[nH]c2)nc2ccccc21` belongs -11.4%; to `O=C(N1CCCCC1)N1CCN(S(=O)(=O)c2cccc([N+](=O)[O-])c2)CC1`, -15.8%. For `Cc1cccc(NC(=S)N2CCCCC2c2cccnc2)c1C` (centres unmarked) the value was -7.57%; for `CCn1ccnc1CN(C)C(=O)C1CCC(=O)N(CCc2cccc(F)c2)C1` (centres unmarked), -50.7%; for `C#CCOCCOCCOCCNc1nc(N2CCN(C(=O)C([C@@H](C)CC)n3cc(C(N)COC(=O)C(F)(F)F)nn3)CC2)nc(N2CCN(C(=O)[C@H](CCC(=O)O)n3cc(C(N)CC(C)C)nn3)CC2)n1.Cl` (some centres unmarked), 13.5%. For the compound `CC(C)(C)c1cc(C(c2cccnc2)N2CCN(CCO)CC2)cc(C(C)(C)C)c1O` (centres unmarked), the “hERG current change (%, negative = inhibition) at 10uM” value is -53.8%. For `c1cc(N2CCCC2)ccc1C(c1nnnn1C1CCCCC1)N1CCOCC1` (centres unmarked) the value was 16.7%.

With `Cc1c(C(c2ccc(F)cc2)c2c(C)n(C)n(-c3ccccc3)c2=O)c(=O)n(-c2ccccc2)n1C`, the “hERG current change (%, negative = inhibition) at 10uM” value came to 9.79%. To `O=C(COc1ccc(Br)cc1)NCCCNC(=O)c1cnccn1` belongs -10.2%; to `Cc1cccc(C)c1NC(=O)CN(c1ccccn1)S(=O)(=O)c1ccc(F)cc1`, 19.1%. To `O=[N+]([O-])c1cccc(-c2nnc(-c3ccccc3F)o2)c1` belongs 1.55%; to `Cc1ccc(C2C(C#N)=C(N)N(N(C)C)C3=C2C(=O)CCC3)cc1` (centres unmarked), -15.9%; to `CCn1c(SCC(=O)N2CCN(c3ccccc3)CC2)nnc1-c1ccoc1C`, -27.5%. For `COc1ccc(C(C(=O)NC(C)(C)C)N(C(=O)CCC(=O)Nc2cc(C)on2)c2ccc(C)c(C)c2)cc1` (centres unmarked) the value was -8.53%; for `CC(C)(C)N(Cc1ccccc1)C(=O)COC(=O)CN1C(=O)NC2(CCCC2)C1=O`, -0.475%; for `CCC1Sc2ccc(S(=O)(=O)CCC(=O)Nc3ccc(C(=O)OC)cc3)cc2NC1=O` (centres unmarked), -4.39%. For `COc1ccc(-c2csc3ncnc(Cl)c23)cc1`, the “hERG current change (%, negative = inhibition) at 10uM” value is recorded as 7.9%. Regarding `COc1ccccc1CN(C)S(=O)(=O)c1cccs1`, the “hERG current change (%, negative = inhibition) at 10uM” value is 4.72%. To `Cc1cccnc1CCNC(=O)CC1C(=O)NCCN1CC1CCCCC1` (centres unmarked) belongs 19.2%; to `N=C1S/C(=C\c2ccc(-c3cccc(Cl)c3)o2)C(=O)N1c1nccs1`, 11.6%. For the compound `CCCCOC(=O)c1cccc(NC(=O)CCC(=O)O)c1`, the “hERG current change (%, negative = inhibition) at 10uM” value came out at 3.59%. Turning to `O=C(Nc1ccc(-c2cn3c(n2)SCC3)cc1)c1ccc2ccccc2n1`, the “hERG current change (%, negative = inhibition) at 10uM” value worked out at 4.3%. To `CCCCNC(=O)CCC(=O)N1CCN(C(c2ccccc2)c2ccccc2)CC1.Cl` belongs -7.34%; to `CC(NC(=O)Cc1ccc(F)cc1)c1ccc(F)cc1` (centres unmarked), 6.16%; to `CS(=O)(=O)c1ccc2nc(N)sc2c1`, 0.827%. For `COC(=O)c1cnn(-c2ccccc2)c1N` the value was 8.06%; for `C/C(=N\NC(=O)c1cccc(Cl)c1)c1cccc(NC(=O)C(C)C)c1`, 5.63%. To `CCC(Sc1nc(=O)cc(N)n1CCc1ccccc1)C(=O)Nc1ccccc1C#N` (centres unmarked) belongs 0.121%. Turning to `CCC[C@H]1CCCC/C=C\CCCC(=O)OCCN1C(=O)OC(C)(C)C`, the “hERG current change (%, negative = inhibition) at 10uM” value was found to be 4.48%. With `COC(=O)c1ccccc1NC(=O)c1ccc(-c2ccccc2F)o1`, the “hERG current change (%, negative = inhibition) at 10uM” value is recorded as -3.45%. As to `O=C1CC(N2CCN(S(=O)(=O)c3ccccc3)CC2)C(=O)N1c1ccccc1` (centres unmarked), the “hERG current change (%, negative = inhibition) at 10uM” value is reported as 1.87%. For `Cc1nc2ncnn2c(C)c1CCC(=O)N1CCc2ccccc2C1` the value was -63.4%; for `Br.CCS(=O)CCSC(=N)N` (centres unmarked), 19.2%. As to `COc1cc(S(=O)(=O)N2CCN(c3ccc(F)cc3)CC2)ccc1Cl`, the “hERG current change (%, negative = inhibition) at 10uM” value came out at 0.968%.

Consider `Cc1ccccc1Nc1c(-c2ccccc2)nc2ncccn12`, for which the “hERG current change (%, negative = inhibition) at 10uM” value is recorded as -15.4%. To `O=C(NCCN1CCN(c2ccccc2)CC1)Nc1ccccc1Cl` belongs -43.3%.

In the case of `COc1ccccc1C(=O)N/C(=C\c1ccc(Br)cc1)C(=O)NCCCO`, the “hERG current change (%, negative = inhibition) at 10uM” value is -34.3%. As for `COc1ccc(OC)c(CCNC(=O)c2ccc3c(=O)[nH]c4c(C(=O)NC(C)C)sc(=S)n4c3c2)c1`, the “hERG current change (%, negative = inhibition) at 10uM” value was 21.2%.

For the compound `O=C(N/N=C/c1cccc([N+](=O)[O-])c1)C1CC(=O)N(c2ccc(Br)cc2)C1` (centres unmarked), the “hERG current change (%, negative = inhibition) at 10uM” value is listed as -46.6%. Consider `CC(C)c1ccccc1-n1c(-c2cccnc2)n[nH]c1=S`, for which the “hERG current change (%, negative = inhibition) at 10uM” value is 10.1%. In the case of `COc1cccc(/C=C2\SC(=S)N(NS(=O)(=O)c3ccc(C)cc3)C2=O)c1OC`, the “hERG current change (%, negative = inhibition) at 10uM” value is given as -13.4%. Consider `CC(=O)c1ccc(NC(=O)CCS(=O)(=O)c2ccc3c(c2)n(C)c(=O)c(=O)n3C)cc1`, for which the “hERG current change (%, negative = inhibition) at 10uM” value came to 16.5%.
